In PubChem BioAssay AID686978 (National Center for Advancing Translational Sciences (NCATS), 2013):
Several values for one entry are separate records, joined by “and”; a condition that tells them apart may be missing. Equal entries are not always repeated. Among all 420,000 compounds or so, about 64,000 (15%) were called active. The inconclusive results got no clear call from the source; some entries with a clear call stand among them for comparison. Calls come from the whole dose curve; as a rule, active = well fitted inhibition curve with a large enough effect; inconclusive = small, poorly fitted or top-dose-only effect; inactive = flat fitted curve, though single readings scatter. Potencies of inconclusive entries are left out as doubtful fits.

Assay: qHTS for Inhibitors of human tyrosyl-DNA phosphodiesterase 1 (TDP1): qHTS in cells in absence of CPT; note: nearly all actives have a fitted effect of over 55% in size
Settings: DT40 Tdp1-/- hTDP1 cells, no CPT, ATP luminescence, 48 h; activity change, negative = growth inhibition: at 46.2 µM (top of the series) unless noted
Method in brief: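 Growth of hTDP1-complemented DT40 Tdp1-knockout cells is measured by ATP luminescence after at least 48 hr compound exposure at 37 °C, with DMSO substituting for the 20 nM CPT used in the parallel screen.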
% is set by controls: 0 for no effect and ±100 for the full control effect; potency is the fitted concentration of half-maximal effect; tags give direction and shape of the fitted curve.

Row | Structure (SMILES) | Potency | activity change, negative = growth inhibition
1 | FC(F)(F)c1ccc(N2CCN(c3cc(-c4ccccc4)nc4ncnn34)CC2)nc1 | active: 3.26 µM | 
2 | CCOc1ncccc1C(=O)Nc1ccc(OC)c(S(=O)(=O)N2CCOCC2)c1 |  | inactive: -2.48%
3 | CCOc1cc(/C=C(/C#N)c2nc3ccccc3[nH]2)ccc1Oc1ccc([N+](=O)[O-])cn1 | inconclusive [inhibitor, partial curve] | 
4 | Cc1ccc(NC(=O)CN(C)C2CCCCC2)cc1Br | active: 18.4 µM | 
5 | NC(c1csc(Nc2ncccn2)n1)C1CCCCC1 (centres undefined) | inconclusive [inhibitor, partial curve] | 
6 | COc1cc(OC)c(N(C)C(=O)Nc2cn(CC(C)C)c(=O)c3ccccc23)cc1Cl | active: 23.1 µM | 
7 | CC1CCc2c(sc3ncn(CC(=O)N4CCCCC4)c(=O)c23)C1 (centres undefined) | inconclusive [inhibitor, single point] | 
8 | CN(C)c1ccc(/C=C/c2cc[n+]([O-])c3ccccc23)cc1 |  | inactive: -11.3%
9 | CC(C)C(=O)NC(c1ccco1)c1c(O)ccc2ccccc12 (centres undefined) | inconclusive [inhibitor, single point] | 
10 | CCOC(=O)C(=O)NNc1ccc(C)cc1 | inconclusive [inhibitor, single point] | 
11 | CCn1c(=NC(=O)c2ccc(S(=O)(=O)N3CCOCC3)cc2)sc2cccc(OC)c21 | active: 13 µM | 
12 | COc1ccc(S(=O)(=O)N2CCN(c3ccccc3OC)CC2)cc1 |  | inconclusive: -31% [inhibitor] and inconclusive: -30.1% [inhibitor]
13 | COc1ccc(OC)c(NC(=O)CCOc2cccc(C)c2)c1 | inconclusive [inhibitor, partial curve, poor fit] | 
14 | Cn1c(-c2csc(-c3ccccc3)n2)n[nH]c1=S | inconclusive [inhibitor, single point] | 
15 | CC(NC(=O)Nc1ccc(Cl)cc1)C(c1cccs1)N1CCOCC1 (centres undefined) | inconclusive [inhibitor, single point] | 
16 | COc1ccc(CCNC(=O)C(=O)NCC2OCCN2S(=O)(=O)c2ccc3c(c2)OCCO3)cc1OC (centres undefined) | inconclusive [inhibitor, single point] | 
17 | CCCc1nc2ccc(C(=O)OC)cn2c1Cc1ccc(C)cc1 | active: 23.1 µM | 
18 | CC(=O)Nc1ccccc1OCc1nnc(-c2ccccc2Cl)o1 | inconclusive [inhibitor, partial curve] | 
19 | COc1ccc2ccccc2c1CN1CCSCC1 |  | inactive: -4.06%
20 | CN(c1cc2c(c3c1ccn3C)C1CCC2O1)C1CCCCC1 (centres undefined) | inconclusive [inhibitor, single point] | 
21 | NC(=O)CSc1cn(Cc2ccc(F)cc2)c2ccccc12 | inconclusive [inhibitor, single point] | 
22 | CCCCNc1ncnc2c1cnn2Cc1ccc(Cl)cc1 | active: 6.51 µM | 
23 | OC(CN1CCCCC1)Cn1c(C(F)(F)F)nc2ccccc21 (centres undefined) |  | inactive: 11.6%
24 | NC(=O)CSc1nnc(-c2cc(-c3cccs3)nc3ccccc23)o1 |  | inconclusive: -30.6% [inhibitor]
25 | Cc1cc(NC(=O)Cn2nnc(-c3ccccc3NC(=O)c3ccccc3F)n2)no1 |  | inactive: -11.5%

Row | Structure (SMILES) | Potency | activity change, negative = growth inhibition
26 | CCOc1ccc2ncc(C(=O)c3ccc(OC)cc3)c(N3CCN(CC)CC3)c2c1 | inconclusive [inhibitor, single point] | 
27 | CNC(=O)C1CCC(=O)N1Cc1ccccc1Cl (centres undefined) |  | inactive: -2.45%
28 | CC1/C(=N/O)CC(c2ccccc2)NC1c1ccccc1 (centres undefined) | inconclusive [inhibitor, single point] | 
29 | O=C(O)c1ccc(N2C(=O)CSC2c2cccc([N+](=O)[O-])c2)cc1 (centres undefined) |  | inactive: 16.9%
30 | COc1ccc(N(C)S(=O)(=O)c2cccc(C(=O)Nc3ccc(-n4cnnn4)cc3)c2)cc1 | active: 18.4 µM | 
31 | CCCCCCCCCCCC[n+]1ccc(C)c2ccccc21 | active: 2 µM | 
32 | COc1ccc2[nH]cc(CCNc3cc(-c4cccc(C#N)c4)ncn3)c2c1 | inconclusive [inhibitor, single point] | 
33 | CCOC(=O)c1c(-c2cccs2)csc1NC(=O)CN1CCOCC1 | active: 20.6 µM | 
34 | COc1ccccc1C(CCNCc1ccc(N(C)C)cc1)c1ccc(OC(C)C)cc1 (centres undefined) | active: 7.31 µM | 
35 | Cc1cc(Cl)ccc1NC(=O)CCC(=O)O |  | inactive: -3.71%
36 | CN(C)/C=N/c1ncn(-c2ncc(C(F)(F)F)cc2Cl)n1 |  | inactive: -4.84%
37 | CCOC(=O)c1sc(NC(=O)c2c(-c3ccccc3)c(-c3ccccc3)nn(C)c2=O)nc1C | active: 16.4 µM | 
38 | COc1ccc(C(=O)OCC(=O)Nc2ccc3c(c2)OCCO3)c(OC)c1 | inconclusive [inhibitor, partial curve] | 
39 | CC1CCN(C(=O)CSc2nc(-c3ccc(F)cc3)cc(C(F)(F)F)n2)CC1 | inconclusive [inhibitor, single point] | 
40 | O=C(Nc1cccc(Oc2c(F)c(F)c(F)c(F)c2F)c1)N1C[C@@H]2C[C@@H](C1)c1cccc(=O)n1C2 | inconclusive [inhibitor, single point] | 
41 | Nc1nc(CN2CCN(c3ccccc3F)CC2)nc(Nc2ccccc2)n1 | inconclusive [inhibitor, single point] | 
42 | CC(=O)NC12CC3CC(C1)CC(C(=O)N1CCN(S(=O)(=O)c4ccc(C(C)C)cc4)CC1)(C3)C2 | inconclusive [inhibitor, single point] | 
43 | O=C(Nc1cccc2ccccc12)C(=O)C1C(=O)Nc2ccccc21 (centres undefined) |  | inconclusive: -33.2% [inhibitor]
44 | Cc1ccc2cc(C(c3nnnn3C3CCCC3)N3CCOCC3)c(=O)[nH]c2c1C (centres undefined) |  | inactive: -7.52%
45 | O=C(Cc1ccc(NC(=O)C2CCCN(C(=O)c3ccccc3)C2)cc1)Nc1ccc(C(=O)N2CCOCC2)cc1 (centres undefined) | inconclusive [inhibitor, partial curve] | 
46 | O=C(c1ccccc1[N+](=O)[O-])N1CC2C3C=CC(C3)C2C1 (centres undefined) |  | inactive: -29.4%
47 | COc1ccc(-c2cc(C(=O)NCCCN3CCCC3=O)c3ccccc3n2)cc1OC | inconclusive [inhibitor, partial curve] | 
48 | COc1cccc(CC(=O)Nc2nc(-c3cccnc3)cs2)c1 | inconclusive [inhibitor, partial curve] | 
49 | CCc1ccc(Nc2nc3ccccc3nc2NS(=O)(=O)c2ccccc2)cc1 | active: 20.6 µM | 
50 | CCCNC(=O)CCn1c(-c2ccc(C)cc2)cc(C(=O)OCC)c1C | inconclusive [inhibitor, partial curve] | 

Row | Structure (SMILES) | Potency | activity change, negative = growth inhibition
51 | Cc1ccc(NC(=O)CCC(=O)NNC(=S)Nc2ccc(F)cc2)c(C)c1 |  | inactive: -15.2%
52 | CC(C)N1CCN(Cc2ccc(OCc3ccccc3)cc2)CC1CCO (centres undefined) | inconclusive [inhibitor, partial curve, poor fit] | 
53 | NC(=O)C1CCN(CC(=O)Nc2ccc(S(=O)(=O)N3CCOCC3)cc2)CC1 |  | inactive: -24.6%
54 | COc1ccc(N(C)C(=O)Cn2cc(S(=O)(=O)N3CCN(c4ccccc4F)CC3)c3ccccc3c2=O)c(OC)c1 | active: 23.1 µM | 
55 | Cc1[nH]c(=O)c(C#N)cc1-c1ccc2nccn2c1 |  | inactive: -1.86%
56 | COc1ccc(OC)c(NC(=O)CSc2nc(C)cs2)c1 |  | inconclusive: -30.9% [inhibitor]
57 | CN(C(=O)c1ccc2c(c1)C(=O)N(CCC1=CCCCC1)C2=O)C1CCCCC1 | inconclusive [inhibitor, single point] | 
58 | CCCCOC(=O)c1ccc(NC(=O)c2sc3nc(C)cc(C)c3c2N)cc1 | inconclusive [inhibitor, single point] | 
59 | CC(Sc1nc(-c2ccccc2)cc(C(F)(F)F)n1)C(=O)N1CCOCC1 (centres undefined) | inconclusive [inhibitor, partial curve, poor fit] | 
60 | CCOc1ccc(CCNC(=O)COC(=O)Cn2nc(C)c([N+](=O)[O-])c2C)cc1OCC |  | inactive: 3.52%
61 | CN(c1ccccc1)S(=O)(=O)c1cccc(C(=O)Nc2ccc(N3CCOCC3)cc2)c1 | active: 18.4 µM | 
62 | CSc1cccc(NC(=O)N2CCc3ccc(NC(=O)c4ccccn4)cc3C2)c1 | active: 13 µM | 
63 | COc1cccc(NC(=O)Cn2c(=O)n(-c3ccccc3)c(=O)c3oc4ccccc4c32)c1 | inconclusive [inhibitor, single point] | 
64 | COc1ccc(C(=O)Oc2ccc(/C=N/NC(=O)c3cccnc3)cc2OC)cc1 |  | inactive: -14.3%
65 | COc1ccc(NC(=O)CN2CCN(C3c4ccccc4-c4ccccc43)CC2)cc1 | inconclusive [inhibitor, single point] | 
66 | O=C1NC[C@H](CCCCN2CCN(Cc3ccccc3)C(=O)C2=O)N(CC2CCCCC2)C1=O |  | inactive: -10.1%
67 | Cc1noc(C)c1C(=O)OCC(=O)N1CCN(S(=O)(=O)c2ccc3ccccc3c2)CC1 |  | inactive: -11.1%
68 | Cc1ccc(NC(=O)CCc2c[nH]c3ccccc23)nc1 | active: 2.59 µM | 
69 | COc1cc(CNCc2ccccc2)ccc1OCC(O)c1ccccc1 (centres undefined) | inconclusive [inhibitor, single point] | 
70 | Cc1csc2ncc(C(=O)N3CCCc4ccccc43)c(=O)n12 |  | inactive: -11%
71 | CN1CC=C2C(C#N)=C(N)C(C#N)(C#N)C(c3ccsc3)C2C1 (centres undefined) | inconclusive [inhibitor, partial curve] | 
72 | Cc1ccc(Cn2cc(CN3CC(N(C)C)CS3(=O)=O)nn2)cc1 (centres undefined) |  | inactive: -3.52%
73 | COc1ccc(C(=O)NC2CCCc3c2cnn3-c2ccccc2F)o1 (centres undefined) | inconclusive [inhibitor, single point] | 
74 | COc1ccc2nc3c(cc2c1)c(NC(=O)C1CCCO1)nn3CC(C)C (centres undefined) | inconclusive [inhibitor, partial curve, poor fit] | 
